According to paper PMC8346517:
These are yes or no findings as the source states them, for the method shown. For part of these data: Binding seen in cells or lysates may run through a third protein. Some results given as binding are weak or reduced against the parent protein; the word gives no strength. Sequences can lack the tags named with a protein.

Chains of the proteins cited; added tags and fusions are not shown. Lines headed by an entry give the natural chain unless they say otherwise; changes in a name come on top.
UniProt P17839: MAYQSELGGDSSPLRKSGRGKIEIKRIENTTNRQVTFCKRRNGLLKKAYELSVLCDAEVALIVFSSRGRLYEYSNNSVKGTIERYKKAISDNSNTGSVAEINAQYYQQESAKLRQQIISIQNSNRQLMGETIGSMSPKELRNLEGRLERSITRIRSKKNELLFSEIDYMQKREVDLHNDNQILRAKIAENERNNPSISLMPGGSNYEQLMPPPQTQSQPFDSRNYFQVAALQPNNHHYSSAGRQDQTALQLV
UniProt P35631: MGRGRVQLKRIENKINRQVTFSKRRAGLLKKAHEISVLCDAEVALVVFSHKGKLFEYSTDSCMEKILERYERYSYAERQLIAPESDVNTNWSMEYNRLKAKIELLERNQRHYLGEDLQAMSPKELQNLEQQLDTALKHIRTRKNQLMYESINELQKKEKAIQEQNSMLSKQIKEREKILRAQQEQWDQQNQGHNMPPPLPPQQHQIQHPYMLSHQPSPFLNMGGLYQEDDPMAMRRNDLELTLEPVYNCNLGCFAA

Columns and labels:
[1] = target: AG^IAP1 (AG with residues 74-107 replaced by residues 58-92 of AP1), yeast two-hybrid fusion (Arabidopsis thaliana) (UniProt P17839+P35631); assay: two-hybrid; matrix-based Gal4 yeast two-hybrid, targets in both bait and prey vectors; 7 days at 20 °C; scored positive only with growth on all three selective media (-LWH + 1 mM 3-AT, -LWH + 5 mM 3-AT, -LWA) and in both replica
[2] = target: T1, PHE^MI(1-95)-3FLAG (Arabidopsis thaliana) (UniProt O80805); assay: pull-down; both constructs co-translated in wheat germ extract (double input reaction), completed with PBS (150 mM sodium phosphate pH 7.2, 150 mM NaCl), anti-Myc or anti-FLAG magnetic beads, 1 h at 4 °C, four washes, western blot with anti-c-Myc and anti-FLAG
T1 sequence: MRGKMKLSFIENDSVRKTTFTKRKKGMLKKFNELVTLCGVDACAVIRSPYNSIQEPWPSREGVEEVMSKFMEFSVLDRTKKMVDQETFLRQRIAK

[3] = target: T2, AGL80^MI(1-88)-3FLAG (Arabidopsis thaliana) (UniProt Q9FJK3); assay: as above
T2 sequence: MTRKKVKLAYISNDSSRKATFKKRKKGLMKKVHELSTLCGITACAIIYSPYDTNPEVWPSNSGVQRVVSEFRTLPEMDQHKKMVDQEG

[4] = target: T3, AGL80^M(1-61)-3FLAG (Arabidopsis thaliana) (UniProt Q9FJK3); assay: as above
T3 sequence: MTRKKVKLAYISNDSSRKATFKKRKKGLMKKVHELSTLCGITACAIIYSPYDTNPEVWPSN

[5] = target: T4, PHE^M(1-60)-3FLAG (Arabidopsis thaliana) (UniProt O80805); assay: as above
T4 sequence: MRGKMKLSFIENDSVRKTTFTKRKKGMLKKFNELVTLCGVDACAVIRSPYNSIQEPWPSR

[6] = target: AGAMOUS (AG), yeast two-hybrid fusion (Arabidopsis thaliana), P17839; assay: two-hybrid; matrix-based Gal4 yeast two-hybrid, targets in both bait and prey vectors; 7 days at 20 °C; scored positive only with growth on all three selective media (-LWH + 1 mM 3-AT, -LWH + 5 mM 3-AT, -LWA) and in both replica; conditions: remark: other sources report otherwise

B1: AGL24, yeast two-hybrid fusion (protein, UniProt O82794 1-220)
chain: MAREKIRIKKIDNITARQVTFSKRRRGIFKKADELSVLCDADVALIIFSATGKLFEFSSSRMRDILGRYSLHASNINKLMDPPSTHLRLENCNLSRLSKEVEDKTKQLRKLRGEDLDGLNLEELQRLEKLLESGLSRVSEKKGECVMSQIFSLEKRGSELVDENKRLRDKLETLERAKLTTLKEALETESVTTNVSSYDSGTPLEDDSDTSLKLGLPSWE
- binding [1]: binds

B2: AGL61^MI(63-155)-5MyC (domain or fragment, UniProt Q4PSU4 63-155)
chain: GRQKIPMVKIKKESHRQVTFSKRRAGLFKKASELCTLCGAEIGIIVFSPAKKPFSFGHPSVESVLDRYVSRNNMSLAQSQQLQGSPAASCELN
- binding [2]: binds
- binding [3]: binds

B3: AGL61^M(63-122)-5Myc (domain or fragment, UniProt Q4PSU4 63-122)
chain: GRQKIPMVKIKKESHRQVTFSKRRAGLFKKASELCTLCGAEIGIIVFSPAKKPFSFGHPS
- binding [4]: no binding
- binding [5]: no binding

B4: AGL24, yeast two-hybrid fusion, O82794 1-220 (protein)
chain: B1 chain
- binding [6]: no binding
